From the supplement of paper PMC4723716
± gives the uncertainty stated by the source. The full ranking holds about 9,900 compounds; the median of “viability index relative to DMSO control” is about 1, and the lowest 2% start at about 0.85. The list shows a part of the results.

System: Plasmodium falciparum NF54 stage V gametocytes
Assay: viability index relative to DMSO control (fraction); higher = less gametocyte killing
Conditions: 2.5 µM, incubation time: 72 h
How it was run: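 In 1,536-well plates, 10 µl of serum-free medium holding P. falciparum NF54 stage V gametocytes (0.75% gametocytemia, 1.25% hematocrit) received compound at 2.5 µM for 72 hr at 37°C in low oxygen. After one to two hours with 3 µl of 2.5 µM MitoTracker Red CMXRos containing 0.13% saponin, red particles of 20–70 µm2 were counted in a single field per well. Viability index is reported as the particle count over the plate mean of wells treated with solvent only.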

[1] = library set: Broad Institute DOS

Row | Structure (SMILES) | viability index [1] | viability index (library set: Broad Institute Blood Stage)
1 | CCCC(=O)N1C[C@@]2(C1)CN([C@H](CO)c1[nH]c3cc(OC)ccc3c21)C(=O)c1ccc(F)cc1 | 0.994 ± 0.026 | –
2 | Cc1cccc(S(=O)(=O)N2[C@@H]3Cn4c(cccc4=O)[C@H]2[C@@H](C(=O)N(C)C)[C@@H]3CO)c1 | 1.07 ± 0.084 | –
3 | C[C@@H]1CN([C@H](C)CO)C(=O)c2cccc(NC(=O)c3ccc(-c4nccs4)cc3)c2O[C@@H]1CN(C)C(=O)Nc1ccc(C(F)(F)F)cc1 | 0.939 ± 0.051 | –
4 | CNC[C@H]1Oc2ccc(NC(=O)CCC(F)(F)F)cc2C(=O)N([C@@H](C)CO)C[C@@H]1C | 0.982 ± 0.038 | –
5 | CCS(=O)(=O)Nc1ccc2c(c1)C(=O)N(C)[C@@H]1CC[C@@H](CC(=O)N3CCN(C)CC3)O[C@H]1CO2 | 1.07 ± 0.061 | –
6 | COc1ccc2c3c([C@@H](CO)N(C[C@]33CCN(CC3)C(=O)Nc3cccc(F)c3)C(=O)C3CC3)n(C)c2c1 | – | 0.807 ± 0.036
7 | O=S(=O)(c1ccccc1)N1CC2(C1)[C@H](c1ccccc1)[C@H](CO)N2CCC(F)(F)F | 1.075 ± 0.01 | –
8 | Cc1noc(C)c1NC(=O)Nc1ccc2c(c1)C(=O)N([C@@H](C)CO)C[C@@H](C)[C@@H](CN(C)S(=O)(=O)c1ccc(F)cc1)O2 | 1.06 ± 0.067 | –
9 | OC[C@H]1Nc2ccc(C#Cc3ccc(F)cc3)cc2[C@H]2[C@@H]1CCN2Cc1ccc2c(c1)OCO2 | 1 ± 0.028 | –
10 | O=C1CCCc2cnnn2COC[C@@H](c2ccccc2)N1 | 1.03 ± 0.022 | –
11 | COc1ccc(NC(=O)N2C[C@@H](O)COC[C@H]3O[C@H](CC(=O)N4CCCCC4)CC[C@@H]32)cc1 | 1.08 ± 0.045 | –
12 | O=C(N[C@H]1CC[C@H](CCn2cc(-c3ccccc3F)nn2)O[C@@H]1CO)c1ccc2c(c1)OCO2 | 1.07 ± 0.041 | –
13 | CC(C)NC(=O)N(C)C[C@@H]1Oc2ccc(NC(=O)c3ccncc3)cc2C(=O)N([C@H](C)CO)C[C@H]1C | 0.954 ± 0.041 | –
14 | COc1cccc(C(=O)Nc2ccc3c(c2)C(=O)N(C)[C@@H]2CC[C@@H](CC(=O)N[C@@H](C)c4ccccc4)O[C@@H]2CO3)c1 | 1.11 ± 0.2 | –
15 | C[C@@H]1C/C=C/C[C@@H](c2ccccc2)NC(=O)[C@H](C)N(C)C(=O)c2ccccc2O1.C[C@@H]1C/C=C\C[C@@H](c2ccccc2)NC(=O)[C@H](C)N(C)C(=O)c2ccccc2O1 | 1 ± 0.069 | –
16 | C[C@@H]1CN([C@@H](C)CO)S(=O)(=O)c2ccc(C#CCC3CCCC3)cc2O[C@H]1CN(C)C(=O)c1cnccn1 | 1.01 ± 0.031 | –
17 | CN1c2ccc(-c3ccc(C#N)cc3)cc2[C@H]2[C@H](CCN2S(=O)(=O)c2ccc(F)cc2)[C@H]1CO | 1.1191 ± 0.00049 | –
18 | COc1ccc(NC(=O)N2C[C@H](O)COC[C@H]3O[C@H](CC(=O)N4CCCCC4)CC[C@@H]32)cc1 | 1.04 ± 0.052 | –
19 | CN1C(=O)c2cc(NC(=O)C3CCOCC3)ccc2OC[C@@H]2O[C@H](CC(=O)NCc3ccccc3F)CC[C@H]21 | 1.04 ± 0.032 | –
20 | COc1ccc2c3c([C@@H](CO)N(Cc4ccccc4OC)C[C@]33CCN(CC4CC4)CC3)n(C)c2c1 | 0.947 ± 0.025 | –
21 | O=S(=O)(c1ccccc1)N1[C@@H](CO)[C@@H]2c3ccccc3NC[C@@H]21 | 1.0551 ± 0.00095 | –
22 | O=C(Nc1ccc(C(F)(F)F)cc1)N[C@@H]1C=C[C@@H](CC(=O)N2CCCCC2)O[C@@H]1CO | 1.12 ± 0.13 | –
23 | COc1ccc(S(=O)(=O)N(C)C[C@@H]2Oc3c(cccc3N(C)C)C(=O)N([C@H](C)CO)C[C@H]2C)cc1 | 1.07 ± 0.058 | –

Row | Structure (SMILES) | viability index [1] | viability index (library set: Broad Institute Blood Stage)
24 | CO[C@@H]1CN(C)C(=O)c2cc(NC(=O)c3cc(C)on3)ccc2OC[C@@H](C)N(C(=O)C2CCC2)C[C@H]1C | 1.1 ± 0.017 | –
25 | COc1cccc(C(=O)Nc2ccc3c(c2)C(=O)N(C)[C@H]2CC[C@@H](CC(=O)NCc4ccc(F)cc4)O[C@@H]2CO3)c1 | 1.1 ± 0.077 | –
26 | N#C[C@H]1[C@@H](c2ccccc2C2=CCCC2)[C@@H](CO)N1C(=O)c1cccc(F)c1 | 1.08 ± 0.1 | –
27 | CCC(=O)N1[C@H](C(=O)NCCCN(C)C)[C@@H](CO)[C@@H]2Cn3c(ccc(-c4ccccc4OC)c3=O)[C@@H]21 | 1.06 ± 0.014 | –
28 | CC(C)(C)[S@](=O)N1Cc2cc(C(=O)N3CCOCC3)nc(-c3cccc(-c4ccc(C#N)cc4)c3)c2[C@@H]1CCO | 1.02 ± 0.026 | –
29 | Cc1cc(C(=O)Nc2cccc3c2O[C@@H](CN(C)C)[C@H](C)CN([C@@H](C)CO)C3=O)n(C)n1 | 1.047 ± 0.0022 | –
30 | O=C(CCN1CCCCC1)NCC[C@@H]1CC[C@H](NS(=O)(=O)c2cccc(Cl)c2)[C@H](CO)O1 | 0.9095 ± 0.0067 | –
31 | COCCNC(=O)[C@@H]1[C@@H](CO)[C@@H]2Cn3c(cccc3=O)[C@H]1N2S(=O)(=O)c1ccccc1C | 1.03 ± 0.085 | –
32 | Cc1noc(C)c1S(=O)(=O)N(C)C[C@H]1OCc2ccccc2-c2ccccc2C(=O)N([C@@H](C)CO)C[C@H]1C | 1.06 ± 0.046 | –
33 | C[C@H]1CN([C@@H](C)CO)S(=O)(=O)c2ccc(-c3cncnc3)cc2O[C@H]1CN(C)C(=O)NC1CCCC1 | 1.01 ± 0.026 | –
34 | CCc1nc(N2[C@@H](C#N)[C@@H](c3ccccc3-c3ccc(F)cc3)[C@@H]2CO)sc1C | 1.05 ± 0.067 | –
35 | Cc1cc(C(=O)Nc2cccc3c2O[C@H](CN(C)C)[C@H](C)CN([C@@H](C)CO)C3=O)n(C)n1 | 0.948 ± 0.16 | –
36 | COc1cccc(NC(=O)N2CC(=O)N3[C@H](C2)[C@@H](c2ccc(C#CCC4CCCC4)cc2)[C@@H]3CO)c1 | 1.002 ± 0.0043 | –
37 | COc1ccc2c3c([C@@H](CO)N(C[C@]33CCN(CC4CCCC4)CC3)C(=O)C3CCC3)n(C)c2c1 | 1.1 ± 0.042 | –
38 | CCCNC(=O)N1[C@H](CO)[C@@H]2c3ccccc3N(C(=O)Nc3cccc(Cl)c3)C[C@@H]21 | 0.984 ± 0.041 | –
39 | COc1ccc(NC(=O)N(C)C[C@@H]2Oc3ccc(NC(=O)Nc4cccc5ccccc45)cc3CC(=O)N([C@H](C)CO)C[C@@H]2C)cc1 | 1.03 ± 0.014 | –
40 | COc1cccc(-c2cccc(-c3nc(C(=O)Nc4ccc(-c5ccccc5)cc4)cc4c3[C@@H](CCO)N(S(=O)C(C)(C)C)C4)c2)c1 (stereo partly drawn) | 1.09 ± 0.027 | –
41 | O=C(Cc1ccccc1)N1CC(=O)N2[C@H](CO)[C@@H](c3ccc(-c4ccc(F)cc4)cc3)[C@H]2C1 | 0.998 ± 0.033 | –
42 | O=C(NC[C@@H]1[C@@H](c2ccccc2)[C@H](CO)N1Cc1ccccn1)C1CCCC1 | 1.05 ± 0.068 | –
43 | C[C@H]1CN([C@@H](C)CO)C(=O)Cc2cc(NC(=O)CCCCCC(=O)Nc3ccccc3N)ccc2O[C@H]1CN(C)S(=O)(=O)c1cccs1 | 1.02 ± 0.043 | –
44 | COc1ccccc1-c1ccc([C@@H]2[C@@H](C#N)N(C(=O)c3cccnc3)[C@@H]2CO)cc1 | 1.06 ± 0.063 | –
45 | COc1cccc(S(=O)(=O)N[C@H]2CC[C@H](CC(=O)NC3Cc4ccccc4C3)O[C@@H]2CO)c1 | 1.04 ± 0.078 | –
46 | O=C(C[C@@H]1CC[C@H]2[C@@H](COC[C@@H](O)CN2Cc2ccc(Oc3ccccc3)cc2)O1)N1CCN(c2ccccc2)CC1 | 1.059 ± 0.0032 | –

Row | Structure (SMILES) | viability index [1] | viability index (library set: Broad Institute Blood Stage)
47 | C[C@@H]1CCCCO[C@@H](CN(C)Cc2ccncc2)[C@H](C)CN([C@@H](C)CO)C(=O)c2cc(NC(=O)Cc3ccccc3)ccc2O1 | 1.09 ± 0.064 | –
48 | Cc1noc(C)c1S(=O)(=O)N(C)C[C@H]1OCc2ccccc2-c2ccccc2C(=O)N([C@@H](C)CO)C[C@@H]1C | 0.984 ± 0.024 | –
49 | CCC(=O)N1C[C@H](O)COC[C@@H]2O[C@H](CC(=O)NC)CC[C@H]21 | 1.1 ± 0.071 | –
50 | C[C@@H]1CN([C@@H](C)CO)C(=O)c2cc(NS(=O)(=O)c3cn(C)cn3)ccc2O[C@@H](C)CCCCO[C@@H]1CN(C)Cc1ccc2c(c1)OCO2 | 1.07 ± 0.018 | –
51 | CC(C)NC(=O)N(C)C[C@H]1Oc2ccc(NC(=O)Cc3ccccc3)cc2CC(=O)N([C@@H](C)CO)C[C@@H]1C | 0.912 ± 0.002 | –
52 | CN(C)CC(=O)N[C@@H]1C=C[C@@H](CC(=O)NCc2ccc(Cl)cc2)O[C@H]1CO | 1.125 ± 0.0094 | –
53 | CN(C)CC(=O)N1[C@@H](C#N)[C@@H](c2ccc(C#CC3CCCCC3)cc2)[C@@H]1CO | 1.0785 ± 0.001 | –
54 | CCC(=O)N1C[C@H](C)[C@@H](OC)CN(C)C(=O)c2cc(NC(=O)Nc3ccc(Cl)cc3)ccc2OC[C@H]1C | 1.03 ± 0.06 | –
55 | O=C(C[C@H]1C[C@@H]2c3cc(NS(=O)(=O)c4ccccc4)ccc3O[C@@H]2[C@H](CO)O1)N1CCOCC1 | 1.1145 ± 0.00073 | –
56 | N#C[C@H]1[C@@H](c2ccccc2)[C@@H](CO)N1S(=O)(=O)c1cccc(F)c1 | 1.09 ± 0.015 | –
57 | C[C@H](CO)N1C[C@H](C)[C@H](CN(C)S(C)(=O)=O)Oc2cc(-c3ccncc3)ccc2S1(=O)=O | 1.18 ± 0.086 | –
58 | C[C@H]1CN([C@@H](C)CO)C(=O)c2cccc(NC(=O)C3CCOCC3)c2O[C@@H]1CN(C)C(=O)Nc1cccc2ccccc12 | 1.03 ± 0.11 | –
59 | COc1ccc(-c2ccc([C@@H]3[C@H]4CN(C(=O)C5CC5)CC(=O)N4[C@H]3CO)cc2)cc1 | 1.08 ± 0.042 | –
60 | C[C@@H]1CN([C@H](C)CO)C(=O)c2cccc(NC(=O)c3ccc(-c4nccs4)cc3)c2O[C@H]1CN(C)C(=O)Nc1ccc(C(F)(F)F)cc1 | 0.97 ± 0.025 | –
61 | C[C@H](NC(=O)C[C@H]1C[C@H]2c3cc(NS(=O)(=O)c4ccc(F)cc4)ccc3O[C@H]2[C@@H](CO)O1)c1ccccc1 | 1.111 ± 0.0095 | –
62 | C[C@@H](NC(=O)[C@H]1[C@H](CO)[C@H]2Cn3c(cccc3=O)[C@@H]1N2C(=O)C1CCC1)c1ccccc1 | 0.974 ± 0.1 | –
63 | CC(=O)N1Cc2cc(C(=O)NCC(F)(F)F)nc(-c3cccc(-c4cccnc4)c3)c2[C@H]1CCO | 1.16 ± 0.022 | –
64 | Cc1ccc(S(=O)(=O)N(C)C[C@@H]2OCCCC[C@@H](C)Oc3ccc(NC(=O)c4ccncc4)cc3C(=O)N([C@@H](C)CO)C[C@@H]2C)cc1 | 1.01 ± 0.064 | –
65 | C[C@H](CO)N1C[C@H](C)[C@H](CN(C)C(=O)c2cnccn2)Oc2cc(C#CCC3CCCC3)ccc2S1(=O)=O | 0.901 ± 0.13 | –
66 | O=C(C1CCCCC1)N1CC2(C1)[C@@H](c1ccccc1)[C@@H](CO)N2C(=O)c1cccnc1 | 0.9508 ± 0.0059 | –
67 | Cc1ccc(S(=O)(=O)N2CC[C@@H]3[C@H]2c2cc(-c4ccccc4F)ccc2N(C)[C@H]3CO)cc1 | 1.08 ± 0.041 | –
68 | N#C[C@@H]1[C@H](c2ccccc2)[C@H](CO)N1C(=O)CCN1CCCCC1 | 1.05 ± 0.056 | –
